# In publication PMC4336329 (PLoS ONE, 2015):
# Screen size: about 310,000 compounds; about 14,000 (4.5%) showed an effect of 50% or more. Effects have a minus sign here. The list shows a part of the results.
# Molecular target: human ether-à-go-go-related gene (hERG) potassium channel (human, UniProt Q12809)
# Experiment: primary screen, population patch clamp on CHO cells stably expressing hERG
# 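Note: peak tail current of the secondary pulse compared with the same well before compound.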
# Sequence of human ether-à-go-go-related gene (hERG) potassium channel (Q12809 whole entry, looked up): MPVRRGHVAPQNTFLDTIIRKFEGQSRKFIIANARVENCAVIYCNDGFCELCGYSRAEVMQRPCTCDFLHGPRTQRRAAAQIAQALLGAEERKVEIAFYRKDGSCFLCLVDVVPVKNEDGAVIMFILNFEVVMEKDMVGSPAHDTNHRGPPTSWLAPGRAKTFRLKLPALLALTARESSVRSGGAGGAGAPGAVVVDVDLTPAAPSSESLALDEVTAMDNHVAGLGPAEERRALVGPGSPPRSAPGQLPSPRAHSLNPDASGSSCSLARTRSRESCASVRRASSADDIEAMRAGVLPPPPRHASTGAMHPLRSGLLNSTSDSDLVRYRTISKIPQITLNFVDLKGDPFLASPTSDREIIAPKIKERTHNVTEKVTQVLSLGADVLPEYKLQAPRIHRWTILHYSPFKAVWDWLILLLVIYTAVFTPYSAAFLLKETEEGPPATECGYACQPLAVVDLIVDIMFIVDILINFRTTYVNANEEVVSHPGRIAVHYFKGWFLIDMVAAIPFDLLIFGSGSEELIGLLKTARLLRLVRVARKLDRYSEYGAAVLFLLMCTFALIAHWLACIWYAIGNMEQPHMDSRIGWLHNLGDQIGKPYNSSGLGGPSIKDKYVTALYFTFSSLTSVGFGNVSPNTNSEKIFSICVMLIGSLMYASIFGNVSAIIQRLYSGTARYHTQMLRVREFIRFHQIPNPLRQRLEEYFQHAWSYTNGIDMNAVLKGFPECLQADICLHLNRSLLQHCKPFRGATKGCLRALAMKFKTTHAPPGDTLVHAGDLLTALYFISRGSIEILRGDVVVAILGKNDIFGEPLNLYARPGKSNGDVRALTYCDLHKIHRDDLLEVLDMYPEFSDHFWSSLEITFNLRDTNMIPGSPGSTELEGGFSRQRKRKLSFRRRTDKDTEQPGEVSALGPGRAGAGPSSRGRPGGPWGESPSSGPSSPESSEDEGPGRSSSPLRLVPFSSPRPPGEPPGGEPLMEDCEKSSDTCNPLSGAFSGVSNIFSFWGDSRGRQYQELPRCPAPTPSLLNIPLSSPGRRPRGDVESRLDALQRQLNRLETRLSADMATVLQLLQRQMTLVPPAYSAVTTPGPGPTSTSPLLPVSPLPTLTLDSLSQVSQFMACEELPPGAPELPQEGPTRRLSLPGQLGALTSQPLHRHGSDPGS
row,SMILES,"hERG current change (%, negative = inhibition) at 10uM [%]"
1,COc1ccc(Br)cc1/C=C/C(=O)NC(=S)Nc1ccc(Cl)c(C(=O)O)c1,22.8
2,CSc1nc(C)c(CCOC(=O)c2cccc(Cl)c2)c(=O)[nH]1,2.68
3,Cc1cc(C)n(CCc2nc(-c3ccc(C)o3)cs2)n1,0.436
4,COc1ccccc1N1CCN(C(=O)c2cc3cc(F)ccc3[nH]2)CC1,15.8
5,CN(C)c1ccc(-c2noc(C3CCN(C(=O)Nc4ccc(Cl)cc4)CC3)n2)cc1,-0.329
6,O=C(NCCCN1CCCC1=O)c1cc(=O)c2ccccc2o1,5.23
7,O=C(COC(=O)c1ccccc1C(=O)c1ccccc1)NCCc1ccc(Cl)cc1Cl,-31.9
8,O=C(COC(=O)C1CC2CCCC(C1)C2=O)Nc1ccc(Cl)cn1 (stereo not shown),-7.38
9,CC#CC(=O)N1CCC(CCc2ccccc2)(C(=O)OCC)CC1,-61.4
10,Cc1ccc(S(=O)(=O)N(CC(=O)N2CCc3ccccc3C2)c2ccc(Cl)c(Cl)c2)cc1,-14.6
11,COc1ccc(OC)c(-c2cc(C(=O)Nc3c(C)nn(Cc4ccccc4C)c3C)no2)c1,0.353
12,COc1ccc(C(=O)Nc2ccc3c(c2)nc(CCNC(=O)c2ccco2)n3C)cc1,-5.16
13,CC(C)CCNC(=O)c1csc2c1CCCCC2,2.04
14,O=C(CN(C(=O)CNS(=O)(=O)c1ccc(F)cc1)c1ccccc1F)NCc1ccco1,-20
15,COC(=O)CSc1nc2c(c(=O)n(C)c(=O)n2C)n1CCCc1ccccc1,-36.3
16,Cc1ccccc1-n1nnnc1SCc1cc(=O)n2ccsc2n1,-25.6
17,CCOC(=O)c1sc(Nc2ccccc2)nc1C,8.63
18,CCOc1ccc(C(=O)NNC2CC(=O)N(Cc3ccc(Cl)cc3)C2=O)cc1OC (stereo not shown),-19.2
19,CC(C)(C)[C@H]1C=C(C(=O)N2CCN(Cc3ccccc3)CC2)O[C@@H](OCc2ccc(CO)cc2)C1,-38.9
20,COc1ccc(NC(=O)CC2CC3CCC2C3)cn1 (stereo not shown),15
21,Cl.c1ccc(CCNCc2cccnc2)cc1,-0.175
22,O=C(CSc1nnnn1-c1ccc2c(c1)OCCO2)N1CCc2ccccc21,-21.2

row,SMILES,"hERG current change (%, negative = inhibition) at 10uM [%]"
1,CCOC(=O)C1=C(N)OC(CCl)=C(C#N)C1c1ccsc1 (stereo not shown),8.35
2,Cc1ccc(CNC(=O)CN2C(=O)C3(OCCCO3)c3ccccc32)cc1,-5.97
3,CN(C)S(=O)(=O)c1cccc(NC(=O)CCNC(=O)c2ccccc2Cl)c1,6.65
4,COc1cc(/C=C2/SC(=Nc3ccc(O)cc3)NC2=O)ccc1O,-9.73
5,O=C(OCC(=O)N1CCCC1=O)c1cccc([N+](=O)[O-])c1,19.9
6,CCOC(=O)c1cnc(SC2CCc3ccccc3C2=O)nc1N (stereo not shown),-19.1
7,COCc1cc(C)nc(Nc2ccc(C)cc2C)c1C#N,7.57
8,COC(=O)CC1=C(C(=O)OC)[C@@H](c2ccccc2[N+](=O)[O-])C(C#N)=C(N)O1,3.86
9,O=C(/C=C/c1ccccc1)N/C(=C\c1ccco1)C(=O)NCCO,-5.59
10,CNc1nc(C)c(C(=O)c2ccc(Cl)cc2)s1,-7.58
11,COc1ccc(-c2c(C#Cc3ccsc3)c3cc(-c4ccc(OC)c(F)c4)ccc3n2C)cc1,14.5
12,O=C(CSc1cccc[n+]1[O-])Nc1ccc2c(c1)OCCO2,17.2
13,O=C(N/N=C/c1cc([N+](=O)[O-])ccc1O)c1cccc(N2CCCC2=O)c1,3.22
14,COc1cc(/C=N/N2CCN(Cc3ccc(C)cc3)CC2)cc(OC)c1O,-43
15,CCOc1ccc(S(=O)(=O)n2nc(C)c(S(=O)(=O)N3CCOCC3)c2C)cc1,15.2
16,CC(C)(C)NC(=S)NCc1cccnc1,-1.7
17,COc1ccc(-c2oc(NC(=O)CCl)c(C#N)c2-c2ccc(OC)cc2)cc1,4.25
18,O=C(Nc1nnc(C2CC2)s1)c1n[nH]c(=O)c2ccccc12,-3.46
19,CCN1CCN(c2ccc(S(=O)(=O)N(CC)CC)cc2[N+](=O)[O-])CC1,-12.1
20,COCc1ccc([C@@H]2C[C@H]3CN(Cc4ccccc4C)C(=O)[C@]34CCCN24)o1,-11.2
21,CCc1ccc(C(=O)NNC(=O)Cn2c(=O)cnc3ccccc32)cc1,-3.44
22,COc1ccc(CCNC(=O)C2CCCN(S(=O)(=O)N3CCCCCC3)C2)cc1OC (stereo not shown),8.33

row,SMILES,"hERG current change (%, negative = inhibition) at 10uM [%]"
1,CCn1c(=O)c(C(=O)NNS(=O)(=O)c2ccc(NC(=O)OC)cc2)c(O)c2ccccc21,-56.3
2,CNC(=O)Cn1c(=O)n(C)c2ccccc21,-1.9
3,C=CCN1C(=O)CC(C(=O)NC)SC1=Nc1ccc(C(=O)OCC)cc1 (stereo not shown),11
4,Cc1ccc(C(C)C)c(OCC(O)CN(C)Cc2ccccc2)c1.Cl (stereo not shown),-33.3
5,C=CCN(Cc1ccco1)S(=O)(=O)c1ccc(Cl)cc1,4.62
6,COc1cccc(C(=O)Nc2ccc(N3CCN(Cc4ccccc4)CC3)cc2)c1,-5.56
7,COc1ccc(NC(=O)C2CCC(N3C(=O)C4CCCCC4C3=O)CC2)cc1 (stereo not shown),11
8,CCN(CC)C(=O)CSC1c2ccccc2C(=O)N1c1ccccc1 (stereo not shown),-11.8
9,O=C(Nc1ccc2c(c1)OCO2)C1CCCCN1S(=O)(=O)c1ccccc1 (stereo not shown),-10.9
10,CCOC(=O)N1CCC(N2C(=O)c3ccccc3C2Nc2ccccc2C)CC1 (stereo not shown),-46.5
11,CC(C)(C)c1nc(N)nc(=O)[nH]1,-1.18
12,CC(=N\NC(=O)c1ccc([N+](=O)[O-])cc1)/C(=N/O)C(=O)Nc1ccccc1,-14.6
13,Cc1onc(-c2ccccc2Cl)c1C(=O)N(Cc1ccc(N(C)C)cc1)C(C)C,10.8
14,CC(C)Oc1ccc(C(=O)Nc2ccc(N3CCN(C(=O)c4ccco4)CC3)cc2)cc1,4.11
15,Cc1ccc(C(C(=O)NCc2ccc(F)cc2)N(Cc2ccco2)C(=O)c2snc(C(N)=O)c2N)o1 (stereo not shown),4.15
16,COc1ccc(Cl)cc1NC(=O)CSc1nc2ccsc2c(=O)n1CC1CCC(C(=O)O)CC1 (stereo not shown),-8.91
17,O=C(CSc1ccc(-c2cccs2)nn1)Nc1ccccc1F,-32.2
18,CCCNC(=O)NC(=O)CN1CCCC1c1ccc2c(c1)OCCO2 (stereo not shown),-9.35
19,COc1ccc2c(c1)C(=O)C(=O)N2,19.5
20,CCNc1cc(N2CCOCC2)nc(SC)n1,9.95
21,COc1ccc(S(=O)(=O)N2CCOCC2)cc1NC(=O)Cc1coc2cc(C)c(C)cc12,18.8
22,c1cncc(CSc2ccc(-c3cccnc3)nn2)c1,9.04

row,SMILES,"hERG current change (%, negative = inhibition) at 10uM [%]"
1,COc1ccc(C(=O)OCN2C(=O)c3ccccc3C2=O)cc1,20.5
2,CCOC(=O)c1c(C)[nH]c(C(=O)COC(=O)COc2ccccc2C)c1C,-0.0618
3,CC/C(=N\Nc1nncc2ccccc12)c1ccc(F)cc1,3.91
4,CCOC(=O)CSc1ncnc2c(C(=O)OCC)c3n(c12)CCC3,-62.6
5,CC(=O)c1cccc(OCc2cc(C(=O)N3CCSCC3)no2)c1,5.45
6,O=C(O)c1ccc(-c2cccc(Cl)c2)o1,14.4
7,Cc1cccc(C(=O)N2CCN(S(=O)(=O)N3CCCCC3)CC2)c1,-16
8,CN1CCN(C2=NCCO2)CC1,8.19
9,O=C(C1=C[C@H](c2ccc3c(c2)OCO3)C[C@H](OCCCCO)O1)N1CCN(Cc2ccc3c(c2)OCO3)CC1,-69.1
10,CCCCN(CCCC)c1nc2ccccc2nc1NS(=O)(=O)c1ccc(NC(C)=O)cc1,8.68
11,CN(C)/C=C/C(=O)c1ccc(Cl)cc1,-1.7
12,COc1ccc(S(=O)(=O)N2CCN(C(=O)[C@H](Cc3ccccc3)NC(=O)c3ccco3)CC2)cc1,-28.6
13,O=C(CSCc1ccc(Cl)cc1Cl)Nc1nccs1,-34.6
14,COc1nnc(-c2ccc(C)c(S(=O)(=O)NC(C)(C)CO)c2)c2ccccc12,-15.9
15,CC(=O)c1ccc(OCC(=O)Nc2c(C)nn(-c3ccccc3)c2C)cc1,-2.73
16,CCOc1cc2nc(-c3ccc(OC)c(OC)c3)nc(N3CC(C)OC(C)C3)c2cc1OC (stereo not shown),13.5
17,CCOC(=O)C1(C)NC(c2ccccc2F)C2C(=O)N(CC)C(=O)C21 (stereo not shown),20.6
18,Cc1ccc(SCC(=O)c2c(C)nc3cc(C)ccn23)cc1,34.5
19,COc1ccc([N+](=O)[O-])cc1NC(C)C,13
20,O=C(CSc1nnc2ccccn12)NC(=O)NC1CCCCC1,4.05
21,CCc1noc(C)c1C(=O)N1CCCC(N2CCN(c3ccccc3F)CC2)C1 (stereo not shown),3.48
22,c1ccc(-n2cnc3cc(NCc4ccncc4)ccc32)cc1,-42
